From paper PMC9411691, “Protein-Ligand Identification and In Vitro Inhibitory Effects of Cathine on 11 Major Human Drug Metabolizing Cytochrome P450s” (International Journal of Toxicology, 2022)
Structures can show the parent of a compound that is named as a salt.

Assays:
CYP2A6 = biological target: T1, CYP2A6 (Homo sapiens, UniProt P11509); assay: Vivid CYP450 fluorescence-based inhibition assay, CYP2A6; conditions: IC50 without NADPH, reversible inhibition, no NADPH in pre-incubation; substrate CC
T1 sequence (P11509 1-494): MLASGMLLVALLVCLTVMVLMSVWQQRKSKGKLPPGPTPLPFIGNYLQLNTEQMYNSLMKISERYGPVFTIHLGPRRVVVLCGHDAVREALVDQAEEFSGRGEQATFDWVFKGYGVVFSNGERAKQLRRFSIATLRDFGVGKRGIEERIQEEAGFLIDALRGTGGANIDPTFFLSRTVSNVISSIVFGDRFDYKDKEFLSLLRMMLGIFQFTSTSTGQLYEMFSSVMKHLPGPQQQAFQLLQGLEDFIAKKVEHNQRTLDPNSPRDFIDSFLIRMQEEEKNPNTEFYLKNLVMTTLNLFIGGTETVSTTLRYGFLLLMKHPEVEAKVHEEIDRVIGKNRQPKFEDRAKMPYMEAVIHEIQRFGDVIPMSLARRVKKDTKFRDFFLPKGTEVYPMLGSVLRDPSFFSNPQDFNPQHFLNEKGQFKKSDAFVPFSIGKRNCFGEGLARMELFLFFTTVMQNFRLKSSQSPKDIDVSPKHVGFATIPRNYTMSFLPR

CYP3A4 [1] = biological target: T2, CYP3A4 (Homo sapiens, UniProt P08684); assay: Vivid CYP450 fluorescence-based inhibition assay, CYP3A4
CYP1A2 = biological target: T3, CYP1A2 (Homo sapiens, UniProt P05177); assay: Vivid CYP450 fluorescence-based inhibition assay, CYP1A2
T3 sequence (P05177 2-516 limits assumed): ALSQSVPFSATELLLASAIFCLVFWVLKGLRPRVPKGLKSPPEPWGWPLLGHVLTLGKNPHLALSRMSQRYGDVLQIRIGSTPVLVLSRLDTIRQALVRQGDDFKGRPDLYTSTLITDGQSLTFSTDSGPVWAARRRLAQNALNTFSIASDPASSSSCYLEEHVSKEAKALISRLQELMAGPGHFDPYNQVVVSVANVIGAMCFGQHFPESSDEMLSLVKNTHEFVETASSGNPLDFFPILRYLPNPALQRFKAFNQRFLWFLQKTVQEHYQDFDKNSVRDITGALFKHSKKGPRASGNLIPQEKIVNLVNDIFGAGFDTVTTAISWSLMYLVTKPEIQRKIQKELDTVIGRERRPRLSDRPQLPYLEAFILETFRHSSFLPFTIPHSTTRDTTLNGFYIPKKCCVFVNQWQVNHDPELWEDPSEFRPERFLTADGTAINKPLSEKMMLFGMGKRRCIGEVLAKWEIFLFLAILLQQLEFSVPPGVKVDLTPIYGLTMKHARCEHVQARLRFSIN

CYP2D6 = CYP2D6 (Homo sapiens, UniProt P10635); conditions: earlier study of the authors; cited from earlier work
UniProt P10635, sequence (P10635 whole entry): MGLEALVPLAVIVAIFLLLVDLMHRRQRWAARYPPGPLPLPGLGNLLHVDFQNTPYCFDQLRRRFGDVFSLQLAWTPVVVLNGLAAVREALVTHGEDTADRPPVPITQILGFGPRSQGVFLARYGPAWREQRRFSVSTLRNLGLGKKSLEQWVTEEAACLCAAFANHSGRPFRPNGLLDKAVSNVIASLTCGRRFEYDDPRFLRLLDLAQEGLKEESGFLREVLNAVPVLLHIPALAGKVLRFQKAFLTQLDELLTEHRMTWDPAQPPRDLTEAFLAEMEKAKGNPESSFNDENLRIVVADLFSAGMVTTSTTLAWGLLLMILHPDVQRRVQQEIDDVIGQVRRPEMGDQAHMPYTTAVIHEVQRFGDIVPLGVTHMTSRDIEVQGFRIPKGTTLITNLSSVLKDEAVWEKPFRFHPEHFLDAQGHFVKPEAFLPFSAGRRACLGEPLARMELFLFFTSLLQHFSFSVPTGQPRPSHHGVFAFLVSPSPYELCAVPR

CYP3A4 [2] = biological target: T2, CYP3A4; conditions: earlier study of the authors; cited from earlier work

SMILES: C[C@H](N)[C@@H](O)c1ccccc1 [Cathine, (1 S, 2 S)-2-amino-1-phenylpropan-1-ol.hydrochloride]
- IC50 (CYP2A6): 80 µM
- IC50 (CYP3A4 [1]): 90 µM
- IC50 (CYP1A2; IC50 with NADPH, 30 minutes pre-incubation with NADPH (time-dependent inhibition)): 255 µM
- IC50 (CYP1A2; IC50 without NADPH, reversible inhibition, no NADPH in pre-incubation, substrate EOMCC): 285 µM

SMILES: C[C@H](N)C(=O)c1ccccc1 [cathinone]
- inhibition of CYP2D6 in vitro, in words (CYP2D6): negligible inhibition
- inhibition of CYP3A4 in vitro, in words (CYP3A4 [2]): negligible inhibition
